# The antibiotic and cytotoxicity screens of Wong et al. (2023)
# The other results are listed elsewhere or left out.
# Experiments:
# [1] = test system: HSkMC (human skeletal muscle cells); test: cytotoxicity call (relative viability < 0.9); details: 10 µM
# [2] = test system: HepG2; test: cytotoxicity call (relative viability < 0.9); details: 10 µM
# [3] = test system: S. aureus RN4220; test: growth inhibition call (relative growth <= 0.2); details: 50 µM
SMILES,cytotoxicity call [1],cytotoxicity call [2],growth inhibition call [3]
Cc1noc(C)c1NC(=O)Nc1ccc2c(c1)C(=O)N([C@@H](C)CO)C[C@@H](C)[C@@H](CN(C)C(=O)Nc1ccc(C(F)(F)F)cc1)O2,inactive,inactive,active
C=CCC[C@H](Cc1ccc(F)cc1)C(=O)O[C@H](CNC(=O)[C@@H](CC=C)CC(=O)N[C@@H](CO)Cc1ccccc1)c1ccccc1,inactive,inactive,inactive
C[C@H]1CCCCO[C@H](CN(C)C(=O)Nc2ccc(F)cc2)[C@@H](C)CN([C@@H](C)CO)C(=O)c2cc(NC(=O)NC3CCCCC3)ccc2O1,inactive,inactive,inactive
COCCOC(=O)N1C(=O)[C@@]2(c3ccccc31)[C@H](c1ccc(OCCO)cc1)N1[C@H](c3ccccc3)[C@H](c3ccccc3)OC(=O)[C@H]1[C@@H]2C(=O)N1CCCCCCC1,inactive,inactive,inactive
C[C@H]1CCCCO[C@H](CN(C)Cc2ccc3c(c2)OCO3)[C@@H](C)CN([C@@H](C)CO)C(=O)c2cc(NC(=O)Nc3ccccc3)ccc2O1,inactive,inactive,inactive
C[C@@H]1CCCCO[C@@H](CN(C)C(=O)Nc2cccc3ccccc23)[C@@H](C)CN([C@H](C)CO)C(=O)c2cc(NC(=O)CCC(F)(F)F)ccc2O1,inactive,inactive,inactive
COc1ccc(C(=O)Nc2ccc3c(c2)C(=O)N(C)[C@@H]2CC[C@H](CC(=O)NCC4CC4)O[C@@H]2CO3)cc1,inactive,active,inactive
C[C@H]1CN([C@@H](C)CO)C(=O)c2cc(C#Cc3ccncc3)cnc2O[C@@H]1CN(C)S(=O)(=O)c1ccccc1F,inactive,active,inactive
COc1ccc(CN(C)C[C@@H]2OCCCC[C@H](C)Oc3ccc(NC(=O)Nc4ccc5c(c4)OCO5)cc3C(=O)N([C@H](C)CO)C[C@H]2C)cc1,inactive,inactive,inactive
COc1cccc(S(=O)(=O)N(C)C[C@H]2OCc3cn(nn3)CCCC(=O)N([C@H](C)CO)C[C@@H]2C)c1,inactive,inactive,inactive
CCC(CC)[C@H](NC(C)=O)[C@@H]1[C@H](O)[C@@H](C(=O)O)C[C@H]1NC(=N)N,inactive,inactive,inactive
[O-][NH2+]N1CCCC1,inactive,inactive,inactive
C[C@H](CO)N1C[C@H](C)[C@H](CN(C)C(=O)c2ccncc2)OCCCC[C@H](C)Oc2ccc(NC(=O)CCCCCC(=O)Nc3ccccc3N)cc2C1=O,inactive,inactive,inactive
O=C(NOC[C@H](O)CO)c1cc(Br)c(F)c(F)c1Nc1ccc(I)cc1F,inactive,inactive,inactive
Cn1ccc(C(=O)N2CCC3(CCOC[C@@H]3NS(C)(=O)=O)CC2)n1,inactive,inactive,inactive
CC(=O)N1CCN(C(=O)c2ccc(NCc3ccccc3Cl)c(S(=O)(=O)Nc3cccc(C(F)(F)F)c3)c2)CC1,inactive,inactive,inactive
C[C@H](CO)N1C[C@H](C)[C@H](CN(C)C(=O)Nc2ccc(C(F)(F)F)cc2)OCCCC[C@H](C)Oc2ccc(NC(=O)C3CCCCC3)cc2C1=O,inactive,inactive,inactive
C[C@@H]1CN([C@@H](C)CO)C(=O)Cc2cc(NC(=O)CCN3CCOCC3)ccc2O[C@@H]1CN(C)S(=O)(=O)c1ccccc1,inactive,inactive,inactive
COc1ccc(S(=O)(=O)Nc2ccc3c(c2)C(=O)N([C@H](C)CO)C[C@H](C)[C@H](CN(C)C(=O)Nc2ccccc2)OCCCC[C@H](C)O3)cc1,inactive,inactive,inactive
C[C@H]1CN([C@@H](C)CO)C(=O)c2cccc(NS(=O)(=O)c3ccc(F)cc3)c2O[C@@H]1CN(C)Cc1ccc(Oc2ccccc2)cc1,inactive,inactive,inactive
COc1ccc(CN(C)C[C@@H]2OCCCC[C@@H](C)Oc3ccc(NS(=O)(=O)c4ccccc4)cc3C(=O)N([C@H](C)CO)C[C@H]2C)cc1,inactive,inactive,inactive
COC12C(COC(N)=O)C3=C(C(=O)C(C)=C(N)C3=O)N1CC1NC12 (stereo not given),inactive,active,active
COCC#Cc1ccc2c(c1)O[C@@H](CN(C)C(=O)Nc1ccccc1F)[C@@H](C)CN([C@@H](C)CO)S2(=O)=O,inactive,inactive,inactive
C[C@@H]1CN([C@@H](C)CO)S(=O)(=O)c2ccc(C3=CCCCC3)cc2O[C@@H]1CN(C)Cc1cncnc1,inactive,inactive,inactive
COc1ccc(S(=O)(=O)N(C)C[C@H]2Oc3ccc(NS(=O)(=O)c4ccccc4)cc3C(=O)N([C@@H](C)CO)C[C@@H]2C)cc1,inactive,inactive,inactive
C[C@@H]1CCCCO[C@H](CN(C)C(=O)Nc2ccccc2)[C@@H](C)CN([C@@H](C)CO)C(=O)c2cc(NC(=O)C3CCCCC3)ccc2O1,inactive,inactive,inactive
O=C1CO[C@H]2CN(c3ccccn3)C[C@@H]2N1,inactive,inactive,inactive
C[C@@H]1CN([C@H](C)CO)C(=O)CCCn2nncc2CO[C@@H]1CN(C)S(=O)(=O)c1ccc2c(c1)OCCCO2,inactive,inactive,inactive

SMILES,cytotoxicity call [1],cytotoxicity call [2],growth inhibition call [3]
O=C(C[C@@H]1CC[C@H](NC(=O)Cc2ccccn2)[C@H](CO)O1)NCCc1ccncc1,inactive,inactive,inactive
C[C@H]1CN([C@@H](C)CO)C(=O)Cc2cc(NC(=O)Cn3cnnn3)ccc2O[C@H]1CN(C)Cc1ccc(C(=O)O)cc1,inactive,inactive,inactive
C[C@H](CO)N1C[C@H](C)[C@H](CN(C)Cc2ccc(C(F)(F)F)cc2)Oc2ccc(NC(=O)NC3CCCCC3)cc2CC1=O,inactive,inactive,inactive
CO[C@H](C(=O)N(C)C[C@@H]1OCc2ccccc2-c2c(n(C)c3ccccc23)C(=O)N([C@H](C)CO)C[C@@H]1C)c1ccccc1,inactive,inactive,inactive
CNC[C@@H](O)Cn1cc(C)c(C(C)=O)c1C,inactive,inactive,inactive
Cc1noc(C)c1NC(=O)Nc1ccc2c(c1)C(=O)N([C@@H](C)CO)C[C@H](C)[C@@H](CN(C)C(=O)C1CCCCC1)OCCCC[C@H](C)O2,inactive,inactive,inactive
COc1ccc2c3c([nH]c2c1)[C@H](CO)N(C[C@]13CN(CCc2ccccc2)C1)C(=O)CN1CCOCC1,inactive,inactive,inactive
O=C(O)[C@H]1CCS(=O)(=O)C1,inactive,inactive,inactive
C[C@@H]1CN([C@@H](C)CO)C(=O)c2cc(NC(=O)NC3CCCCC3)ccc2O[C@H]1CN(C)S(=O)(=O)c1cn(C)cn1,inactive,inactive,inactive
CC#N,inactive,inactive,inactive
C[C@H](CO)N1C[C@H](C)[C@@H](CN(C)Cc2ccccc2)Oc2ccc(NC(=O)Nc3ccc(C(F)(F)F)cc3)cc2CC1=O,active,active,inactive
CC1(C)S[C@H]2[C@@H](NC(=O)[C@@H](NC(=O)N3CCN(S(C)(=O)=O)C3=O)c3ccccc3)C(=O)N2[C@@H]1C(=O)O,inactive,inactive,active
C[C@@H]1CN([C@@H](C)CO)C(=O)Cc2cc(NS(=O)(=O)c3ccc(F)cc3)ccc2O[C@H]1CN(C)Cc1ccc(Cl)c(Cl)c1,inactive,inactive,inactive
C[C@@H]1CN([C@H](C)CO)C(=O)Cc2cc(NC(=O)c3ccncc3)ccc2O[C@@H]1CN(C)S(=O)(=O)c1ccccc1,inactive,inactive,inactive
C[C@@H]1CN([C@H](C)CO)C(=O)c2cc(NS(C)(=O)=O)ccc2O[C@H]1CN(C)Cc1ccc(C(F)(F)F)cc1,inactive,inactive,inactive
Cc1noc(C)c1S(=O)(=O)Nc1ccc2c(c1)C(=O)N([C@@H](C)CO)C[C@H](C)[C@@H](CN(C)Cc1ccc(Oc3ccccc3)cc1)O2,inactive,inactive,inactive
Cc1ccc(S(=O)(=O)Nc2ccc3c(c2)C(=O)N([C@H](C)CO)C[C@@H](C)[C@@H](CN(C)CC2CCCCC2)OCCCC[C@@H](C)O3)cc1,inactive,active,inactive
CN(C)CCCNC(=O)C[C@@H]1CC[C@H](NS(=O)(=O)c2ccccc2)[C@H](CO)O1,inactive,inactive,inactive
C[C@@H]1CN([C@H](C)CO)C(=O)c2cccc(NC(=O)Nc3cccc4ccccc34)c2O[C@@H]1CN(C)Cc1ccc(-c2ccccc2)cc1,inactive,inactive,inactive
CCOC(=O)CN1C[C@]23C=C[C@H](O2)[C@@H](C(=O)NCc2ccc(OC)cc2)[C@H]3C1=O,inactive,inactive,inactive
COc1ccc(NC(=O)N(C)C[C@@H]2OCc3ccccc3-c3c(n(C)c4ccccc34)C(=O)N([C@H](C)CO)C[C@@H]2C)c(OC)c1,inactive,inactive,inactive
C[C@H](CO)N1C[C@H](C)[C@H](CN(C)C(=O)Nc2ccc(C(C)(C)C)cc2)OCc2cn(nn2)CCCC1=O,inactive,inactive,inactive
C[C@@H]1CCCCO[C@@H](CN(C)Cc2ccc(Cl)c(Cl)c2)[C@@H](C)CN([C@H](C)CO)C(=O)c2cc(NC(=O)Nc3ccc(F)cc3)ccc2O1,inactive,inactive,inactive
Cc1noc(C)c1S(=O)(=O)N(C)C[C@H]1Oc2ccc(NC(=O)NC(C)C)cc2CC(=O)N([C@H](C)CO)C[C@@H]1C,inactive,inactive,inactive
COc1ccc(-c2cnc3c(c2)C(=O)N([C@H](C)CO)C[C@@H](C)[C@H](CN(C)C(=O)Cc2cccnc2)O3)cc1,inactive,inactive,inactive
CCS(=O)(=O)Nc1ccc2c(c1)C(=O)N(C)[C@H]1CC[C@@H](CC(=O)N[C@H]3CCN(Cc4ccccc4)C3)O[C@H]1CO2,inactive,inactive,inactive
Cc1noc(C)c1S(=O)(=O)N(C)C[C@@H]1OCCCC[C@@H](C)Oc2ccc(NC(=O)Nc3ccccc3)cc2C(=O)N([C@@H](C)CO)C[C@H]1C,inactive,inactive,inactive
